Experimental data: article PMC9135335, “Structure and kinase activity of bacterial cell cycle regulator CcrZ” (PLoS Genetics, 2022)
Results are given in words; binding and its absence hold for the method and conditions named. Some entries that bind do so weakly or less than the wild type. For some assays here: Tags and fused reporters may be left off the sequences shown. Each block holds one binder with its values, some of them ahead of it.

Protein sequences, listed by entry. Tags and fused reporters are not part of them.
UniProt P05648: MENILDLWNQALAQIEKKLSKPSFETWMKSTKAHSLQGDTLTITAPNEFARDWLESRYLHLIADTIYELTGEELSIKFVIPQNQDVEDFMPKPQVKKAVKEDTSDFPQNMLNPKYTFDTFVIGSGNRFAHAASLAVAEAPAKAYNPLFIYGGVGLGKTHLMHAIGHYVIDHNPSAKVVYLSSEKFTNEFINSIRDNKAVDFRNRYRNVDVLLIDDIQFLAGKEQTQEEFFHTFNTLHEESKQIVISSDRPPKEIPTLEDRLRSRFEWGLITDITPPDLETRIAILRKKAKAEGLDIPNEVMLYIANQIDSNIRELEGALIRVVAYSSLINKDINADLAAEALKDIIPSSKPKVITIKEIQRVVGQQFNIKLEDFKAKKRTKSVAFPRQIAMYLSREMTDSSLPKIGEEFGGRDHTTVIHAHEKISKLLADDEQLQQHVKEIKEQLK

Tests used:
[1] = target: purified WT CcrZ (B. subtilis), recombinant from E. coli (B. subtilis) (UniProt C0SPC1); test: SEC; S200 column, 20 mM Tris-HCl pH 8.0, 150 mM NaCl, 1 mM DTT; compared with protein standards (15-600 kDa); CcrZ peak at ~68 mL retention, equivalent to a 30 kDa monomer; both purified
[2] = target: SelenoMet WT CcrZ (B. subtilis) bound to AMP-PNP (B. subtilis) (UniProt C0SPC1); test: crystal structure; SelenoMet CcrZ with AMP-PNP, 2.6 Å, space group P 43 21 2; contact with a symmetry mate in the crystal lattice; both purified
[3] = target: T1, full-length DnaD fused to T25 or T18 fragments (B. subtilis) (UniProt P39787); test: two-hybrid; bacterial two-hybrid with T25 and T18 fusions co-transformed into E. coli BTH101 (ΔcyaA); spotted on LB plates with X-gal and 0.5 mM IPTG; 30°C for 24 hours, then room temperature for 3 days
T1 sequence: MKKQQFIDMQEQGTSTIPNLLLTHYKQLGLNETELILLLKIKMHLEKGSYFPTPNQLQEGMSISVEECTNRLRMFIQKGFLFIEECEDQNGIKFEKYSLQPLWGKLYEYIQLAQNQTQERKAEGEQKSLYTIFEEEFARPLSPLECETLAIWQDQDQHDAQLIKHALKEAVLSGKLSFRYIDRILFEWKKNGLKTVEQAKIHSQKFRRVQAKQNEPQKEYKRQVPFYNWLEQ

[4] = target: T2, full-length DnaB fused to T25 or T18 fragments (B. subtilis) (UniProt P07908); test: as above
T2 sequence: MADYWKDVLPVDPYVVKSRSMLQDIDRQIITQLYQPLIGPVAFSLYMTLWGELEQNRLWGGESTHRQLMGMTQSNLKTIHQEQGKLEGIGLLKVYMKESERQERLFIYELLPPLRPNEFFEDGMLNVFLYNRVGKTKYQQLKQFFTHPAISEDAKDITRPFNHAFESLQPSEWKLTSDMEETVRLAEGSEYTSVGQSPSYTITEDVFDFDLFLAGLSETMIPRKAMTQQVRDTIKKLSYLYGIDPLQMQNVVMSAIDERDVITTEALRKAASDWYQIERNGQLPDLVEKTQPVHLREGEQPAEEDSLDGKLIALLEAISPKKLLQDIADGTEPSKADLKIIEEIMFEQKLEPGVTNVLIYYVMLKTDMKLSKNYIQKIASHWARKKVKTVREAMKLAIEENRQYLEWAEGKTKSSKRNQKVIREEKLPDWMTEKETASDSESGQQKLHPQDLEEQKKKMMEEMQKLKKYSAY

[5] = target: full-length DnaA fused to T25 or T18 fragments (B. subtilis) (UniProt P05648); test: as above

binding [1]: no binding
B1: purified WT CcrZ (B. subtilis), recombinant from E. coli (enzyme, UniProt C0SPC1 2-269)
chain: NIDMNWLGQLLGSDWEIFPAGGATGDAYYAKHNGQQLFLKRNSSPFLAVLSAEGIVPKLVWTKRMENGDVITAQHWMTGRELKPKDMSGRPVAELLRKIHTSKALLDMLKRLGKEPLNPGALLSQLKQAVFAVQQSSPLIQEGIKYLEEHLHEVHFGEKVVCHCDVNHNNWLLSEDNQLYLIDWDGAMIADPAMDLGPLLYHYVEKPAWESWLSMYGIELTESLRLRMAWYVLSETITFIAWHKAKGNDKEFHDAMEELHILMKRIVD

binding [2]: no binding
B2: SelenoMet WT CcrZ (B. subtilis) bound to AMP-PNP (enzyme, UniProt C0SPC1 2-269)
chain: B1 chain
modifications: selenomethionine derivative

binding [3]: no binding
binding [4]: binds
binding [5]: no binding
B3: CcrZ (B. subtilis), full-length, fused to T25 or T18 fragments (protein, UniProt C0SPC1 1-269)
chain: MNIDMNWLGQLLGSDWEIFPAGGATGDAYYAKHNGQQLFLKRNSSPFLAVLSAEGIVPKLVWTKRMENGDVITAQHWMTGRELKPKDMSGRPVAELLRKIHTSKALLDMLKRLGKEPLNPGALLSQLKQAVFAVQQSSPLIQEGIKYLEEHLHEVHFGEKVVCHCDVNHNNWLLSEDNQLYLIDWDGAMIADPAMDLGPLLYHYVEKPAWESWLSMYGIELTESLRLRMAWYVLSETITFIAWHKAKGNDKEFHDAMEELHILMKRIVD
